Laboratory results reported in article PMC12136788.
This is one part of the list.

T1: UNK ZnF1-6 (called full-length) (human, UniProt Q9C0B0 30-357)
T1 sequence: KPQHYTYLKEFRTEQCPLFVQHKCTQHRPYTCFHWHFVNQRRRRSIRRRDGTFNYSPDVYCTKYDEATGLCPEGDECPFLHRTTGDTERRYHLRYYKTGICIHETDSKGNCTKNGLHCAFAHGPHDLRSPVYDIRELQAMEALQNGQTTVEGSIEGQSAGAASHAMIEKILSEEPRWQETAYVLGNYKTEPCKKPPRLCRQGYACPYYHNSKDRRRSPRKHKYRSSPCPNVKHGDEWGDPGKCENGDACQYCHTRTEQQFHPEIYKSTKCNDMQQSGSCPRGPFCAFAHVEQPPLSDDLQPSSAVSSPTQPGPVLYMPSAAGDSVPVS

B1: chr2:224001733:224001845:-|CDS|ENSG00000135919|unk|FALSE|bound_elsewhere (ssRNA)
RNA: GGGAGUUCUACAGUCCGACGAUCGGCCUCUGUGACGCUGCCUUCCAUCUGCUCCCACUUCAAUCCUCUGUCUCUCGAGGAACUAGGCUCCAACACGGGGAUCCAGGUUUUCAAUCAGAUUGUGAAGUCGAGGCCUCAUGACAACAACAGAGGAUUGAGCAUCA
B2: chr16:66769962:66770309:-|CDS|ENSG00000249961|control|control|control (ssRNA)
RNA: GGGAGUUCUACAGUCCGACGAUCCUCCAUGCAGAUCGGAUUGGUCGAGGUAGCAAAGCAGAAGAUGAGGAUAAAAGCCAUUCUAGACAGUUACAGAGUUAUAAGUCCCAUGGAGUCAUGUCUAAAGCAUGUACAAAUGAUGACCAACAGAGGAUUGAGCAUCA
B3: ENSG00000070961:be:win_1801|CDS|ENSG00000070961|bound_else_gene|NA|bound_elsewhere_windowed (ssRNA)
RNA: GGGAGUUCUACAGUCCGACGAUCAAGGGUGCAUCUGAGAUAAUUCUGAAAAAGUGUUUCAAAAUCUUGAGUGCUAAUGGUGAGGCAAAAGUAUUCAGACCAAGGGACCGUGAUGAUAUUGUAAAAACUGUGAUUGAACCGAUGCAACAGAGGAUUGAGCAUCA
B4: chr15:67202635:67202736:-|3pUTR|ENSG00000103591|msi1|total|mutant (ssRNA)
RNA: GGGAGUUCUACAGUCCGACGAUCUGCCAAAAUUGCCCUUAUCAUGUUGGCUGCCUGACUUGUUUACCGGGUCCCCUUAAUUUCCGUUUUCCGCCGGAGGUUAAGGAGAAAUCUUUUUUUUCCUCAGUAUAUUGUAAGAGAGUGCAACAGAGGAUUGAGCAUCA
B5: chr12:64128047:64128160:+|CDS|ENSG00000196935|unk|total|mutant (ssRNA)
RNA: GGGAGUUCUACAGUCCGACGAUCGGCAGCCUGACCAACAUCAGCCGGCACGACUCCCUCAAGAAGAUCGACAGCCCUCCCAUCCGAAGGUCCACGUCAUCAGGGCAAUACACGGGCUUCAAUGACCACAAGCCACUGGACCCACAACAGAGGAUUGAGCAUCA
B6: chr10:116672031:116672132:-|3pUTR|ENSG00000165868|msi1|total|mutant (ssRNA)
RNA: GGGAGUUCUACAGUCCGACGAUCCCUUUCCUGCCUUGCAUUAAUGCUAUCUCCCUGUGUACUGUUUCUCUUAAAUGAGCAGACCGAAAUCUGCAGUGUUGGCAGACCGGUGAUGGAGAGGAUGAUAAUUUUAUCUUCUGGCCACAACAGAGGAUUGAGCAUCA
B7: chr9:34635388:34635489:-|3pUTR|ENSG00000147955|msi1|total|mutant (ssRNA)
RNA: GGGAGUUCUACAGUCCGACGAUCGGGAUAUCCAUGCUUAUGUAUCCAAACACAGAGACCCAUGGGAACAAAUGAGACACAUACCGAUACUGAGACCUGUGUGUACAGCCGGACCAUGCACUCACACCCAUCUGGAGAGGGAGCCAACAGAGGAUUGAGCAUCA
B8: chr17:63766011:63766126:-|CDS|ENSG00000108588|unk|FALSE|unique (ssRNA)
RNA: GGGAGUUCUACAGUCCGACGAUCGGUGUUUGGGAGUGUCUCUGAAGCCAAGUUUGAUGAUUUUGAGGAUGAGGAGGACAUAGUAGAGUAUGAUGAUAAUGACUUCGCUGAAUUUGAGGAUGUCAUGGAAGACUCUGUUACUGACAACAGAGGAUUGAGCAUCA
B9: chr3:10101824:10101929:+|3pUTR|ENSG00000144554|unk|FALSE|unique (ssRNA)
RNA: GGGAGUUCUACAGUCCGACGAUCAAAAUCUCUGAGUCAUGAUUCUGGACUUUGGGAGCUAGUUUUGAAACUCUGAUUUAUUGUAGAACUUAGGCUUGUACCAAUUUUACAAAUAAAUUCUGUUCUAAGUUCUGCCUCAGUUGCCAACAGAGGAUUGAGCAUCA
B10: chr4:48851844:48851957:+|CDS|ENSG00000109180|unk|FALSE|unique (ssRNA)
RNA: GGGAGUUCUACAGUCCGACGAUCAUAUGACUCAAGUGUGAGUGGUCAAUCAUCUUUUGUGACAUCCCCAGCAGCAGACAACAUAGAAAUGCUUCCUCAUUAUGAGCCAAUUCCAUUCAGUUCUUCUAUGAAUGAAUCUGCUCCCAACAGAGGAUUGAGCAUCA
B11: chr19:41259979:41260080:+|3pUTR|ENSG00000167601|msi1|FALSE|unique (ssRNA)
RNA: GGGAGUUCUACAGUCCGACGAUCCCUGUCUUCCUACCUAUCCCACCUCCAUCCCAGACAGGUCCCUCCCCUUCUCUGUGCAGUAGCAUCACCUUGAAAGCAGUAGCAUCACCAUCUGUAAAAGGAAGGGGUUGGAUUGCAAUACAACAGAGGAUUGAGCAUCA
B12: chr1:227780961:227781062:+|3pUTR|ENSG00000143740|unk|total|mutant (ssRNA)
RNA: GGGAGUUCUACAGUCCGACGAUCCCUGGAAGAGGCCGCCCUCGUCUUGUCUCGGCUCCCUUUCAUGGACAGACUGGCCUUCUCCGCUGUACUAUAAAUUUGUGAGUGAAGUCCGAGCCCAGCUCACUCCGCCAGCUCACUUUGCAACAGAGGAUUGAGCAUCA
B13: chr9:125437660:125437767:-|3pUTR|ENSG00000119487|unk|FALSE|unique (ssRNA)
RNA: GGGAGUUCUACAGUCCGACGAUCUGAUGUCCUUACUGUCCCCAGCCAGGGCCGGGGACCGGUGUUUCACUGAGGACCUGCAUUAGAAACAUUUUUUAAAUUGUUGUACAGGAAGAGAUGUGUCUAAAACAGCAUCUUAAAGCUCAACAGAGGAUUGAGCAUCA
B14: chrX:41141081:41141111:+|CDS|ENSG00000124486|msi1_unk|FALSE|overlapping (ssRNA)
RNA: GGGAGUUCUACAGUCCGACGAUCCACUCUUCAUACAGUGAAAAAGUACUUUCUUCCAAUAAUAGAAAUGGUUCCACAGUUUUUAGAAAACUUAACUGAUGAAGAACUGAAAAAAGAAGCAAAGAAUGAAGCCAAAAAUGAUGCCAACAGAGGAUUGAGCAUCA
B15: ENSG00000136451:be:win_351|CDS|ENSG00000136451|bound_else_gene|NA|bound_elsewhere_windowed (ssRNA)
RNA: GGGAGUUCUACAGUCCGACGAUCUACCAUCGCUGGGGACAGCAGCCGAACUUCGUUGGUCUCGACCAUUGCAGGCAUCUUGUCAACAGUCACUACAUCUUCCUCGGGCACCAACCCCAGUAGCAGUGCCAGCACCACAGCUAUCAACAGAGGAUUGAGCAUCA
B16: chr16:14644374:14644495:+|CDS|ENSG00000103429|unk|total|mutant (ssRNA)
RNA: GGGAGUUCUACAGUCCGACGAUCAACACAAUGGACCUUGAGAGAGAUGAACCUCUCAAAAGCACCGGCCCUCAGAUUUCUGUCCGUGAAUUUUCUUGCCACUGCUGCUACGACAUCCUGGUUAACCCCACCACCUUGAACUGUCAACAGAGGAUUGAGCAUCA
B17: chr1:11013840:11013957:+|CDS|ENSG00000120948|unk|total|mutant (ssRNA)
RNA: GGGAGUUCUACAGUCCGACGAUCGGCGUGUGGGCUUCGCUACAGGAAUCCAGUGUCUCAGUGUAUGAGAGGUGUCCGGCUGGCCGAAGGAAUUCUGCAUGCCCCAGAUGCUGGCUGGGGAAAUCUGGUGUAUGUUGUCAACUACAACAGAGGAUUGAGCAUCA
B18: chr17:68278117:68278284:-|CDS|ENSG00000108932|unk|FALSE|unique (ssRNA)
RNA: GGGAGUUCUACAGUCCGACGAUCGCUUUGUUCCAAAGCCAAUGUGUAUACUGAAGUGCCUGAUGGAGGAUGGGGCUGGGCGGUAGCUGUUUCAUUUUUCUUCGUUGAAGUCUUCACCUACGGCAUCAUCAAGACAUUUGGUGUCAACAGAGGAUUGAGCAUCA
B19: chr8:143915815:143915916:-|3pUTR|ENSG00000178209|msi1|total|mutant (ssRNA)
RNA: GGGAGUUCUACAGUCCGACGAUCGCCAGGUGCCUUGGAGGGUCCCAAGCUGGGCCCCAGCCCACCCUCCUGUCUUCCCAGGGCCGCCCGCCUGCCAGUCCCCGCUGCACAGGGCAGCUGGGCCCAACCCUGUCUGCCGAGGGCCAACAGAGGAUUGAGCAUCA
B20: chr7:77779054:77779164:+|CDS|ENSG00000187257|unk|FALSE|unique (ssRNA)
RNA: GGGAGUUCUACAGUCCGACGAUCUAAAUUUGAAAAUAGCAACAAAGAUUUAAAGGAAGAAUUGUGCCCUGGAAAUCUAAGUCUAGUUGAUACAAGGCAACACAGUUCAGCACAUUCAAAUCAAGAUAAAAAAGACGAUGACAUCAACAGAGGAUUGAGCAUCA
B21: chr15:90931683:90931944:-|CDS|ENSG00000184508|control|control|control (ssRNA)
RNA: GGGAGUUCUACAGUCCGACGAUCGACAAGACUCUGCCCAAGCUGGAGAGAAAGAGGCUGCAGGUGGAGCAAGCGCCCCACAGUAGCCCCGGGGCCAAACUGGUGAAGCUGGCAGACAAGCUGUACAAUCUGAGGGACCUGAAUCAACAGAGGAUUGAGCAUCA
B22: chr1:17067826:17067927:-|3pUTR|ENSG00000117115|msi1|FALSE|unique (ssRNA)
RNA: GGGAGUUCUACAGUCCGACGAUCCCAGAUUCAUUCCCUGGCUCCAACUGAAAAGACUCAGUUUCAAUCGUUAAAAGUUCCUUUAGGGCCAGAAGAAUAAAUGAAUUAUAAUCCCAUUUUGAAGAACCGAUUUAUAACCAAUGACAACAGAGGAUUGAGCAUCA

target: T1, UNK ZnF1-6 (called full-length); experiment: nsRBNS (natural sequence RNA bind-n-seq); RBNS binding buffer (assumed for nsRBNS): 25 mM Tris pH 7.5, 150 mM KCl, 3 mM MgCl2, 0.01% Triton X-100, 500 ug/ml BSA, 20 U/ml SUPERase-In, 4 C; UNK is unkempt and MSI1 is Musashi-1; names of the RNAs are library labels; protein concentration not given here; high values mean tight binding

Binder	binding signal [enrichment R]
B1	0.698
B2	0.819
B3	0.56
B4	0.468
B5	0.738
B6	0.548
B7	0.886
B8	0.665
B9	0.768
B10	0.365
B11	0.71
B12	0.647
B13	0.967
B14	1.13
B15	0.685
B16	0.73
B17	1.09
B18	0.822
B19	1.04
B20	0.676
B21	0.675
B22	0.557
